Measurements reported in PubChem BioAssay AID504333 (National Center for Advancing Translational Sciences (NCATS), 2011).
In all, about 360,000 compounds went through this assay and about 16,000 (4.4%) were called active. The shares of active, inactive and inconclusive entries below differ from those in the screen. The call rests on the fitted dose curve; in most records, active means well fitted inhibition curve with a large enough effect; inconclusive means small, poorly fitted or top-dose-only effect; inactive means no such curve, though single readings can be large or run the other way. Where the call is inconclusive, the potency comes from a doubtful curve fit.

biological target: Bromodomain adjacent to zinc finger domain protein 2B (Homo sapiens) (UniProt Q9UIF8); assay: qHTS Assay for Inhibitors of BAZ2B; settings: AlphaScreen BAZ2B-H3K14Ac peptide displacement; activity change, negative = inhibition: at 114 µM (top of the series) unless noted; further: nearly all actives have a fitted effect of over 60% in size
Summary of the method: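 AlphaScreen displacement of biotin-H3(5-23)K14Ac peptide (50 nM final) from BAZ2B (50 nM final) in PBS pH 7.4, 0.01% Tween-20; complex preformed 30 min RT, then compounds (top 110 uM) 30 min RT, beads 20 min dark.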
On the % scale 0 is the no-effect control and ±100 the full control effect; potency means the concentration at half of the fitted maximal effect; tags describe the fitted curve by direction and shape.

Chain of UniProt Q9UIF8 (Q9UIF8 whole entry, looked up, the tested form may be a part): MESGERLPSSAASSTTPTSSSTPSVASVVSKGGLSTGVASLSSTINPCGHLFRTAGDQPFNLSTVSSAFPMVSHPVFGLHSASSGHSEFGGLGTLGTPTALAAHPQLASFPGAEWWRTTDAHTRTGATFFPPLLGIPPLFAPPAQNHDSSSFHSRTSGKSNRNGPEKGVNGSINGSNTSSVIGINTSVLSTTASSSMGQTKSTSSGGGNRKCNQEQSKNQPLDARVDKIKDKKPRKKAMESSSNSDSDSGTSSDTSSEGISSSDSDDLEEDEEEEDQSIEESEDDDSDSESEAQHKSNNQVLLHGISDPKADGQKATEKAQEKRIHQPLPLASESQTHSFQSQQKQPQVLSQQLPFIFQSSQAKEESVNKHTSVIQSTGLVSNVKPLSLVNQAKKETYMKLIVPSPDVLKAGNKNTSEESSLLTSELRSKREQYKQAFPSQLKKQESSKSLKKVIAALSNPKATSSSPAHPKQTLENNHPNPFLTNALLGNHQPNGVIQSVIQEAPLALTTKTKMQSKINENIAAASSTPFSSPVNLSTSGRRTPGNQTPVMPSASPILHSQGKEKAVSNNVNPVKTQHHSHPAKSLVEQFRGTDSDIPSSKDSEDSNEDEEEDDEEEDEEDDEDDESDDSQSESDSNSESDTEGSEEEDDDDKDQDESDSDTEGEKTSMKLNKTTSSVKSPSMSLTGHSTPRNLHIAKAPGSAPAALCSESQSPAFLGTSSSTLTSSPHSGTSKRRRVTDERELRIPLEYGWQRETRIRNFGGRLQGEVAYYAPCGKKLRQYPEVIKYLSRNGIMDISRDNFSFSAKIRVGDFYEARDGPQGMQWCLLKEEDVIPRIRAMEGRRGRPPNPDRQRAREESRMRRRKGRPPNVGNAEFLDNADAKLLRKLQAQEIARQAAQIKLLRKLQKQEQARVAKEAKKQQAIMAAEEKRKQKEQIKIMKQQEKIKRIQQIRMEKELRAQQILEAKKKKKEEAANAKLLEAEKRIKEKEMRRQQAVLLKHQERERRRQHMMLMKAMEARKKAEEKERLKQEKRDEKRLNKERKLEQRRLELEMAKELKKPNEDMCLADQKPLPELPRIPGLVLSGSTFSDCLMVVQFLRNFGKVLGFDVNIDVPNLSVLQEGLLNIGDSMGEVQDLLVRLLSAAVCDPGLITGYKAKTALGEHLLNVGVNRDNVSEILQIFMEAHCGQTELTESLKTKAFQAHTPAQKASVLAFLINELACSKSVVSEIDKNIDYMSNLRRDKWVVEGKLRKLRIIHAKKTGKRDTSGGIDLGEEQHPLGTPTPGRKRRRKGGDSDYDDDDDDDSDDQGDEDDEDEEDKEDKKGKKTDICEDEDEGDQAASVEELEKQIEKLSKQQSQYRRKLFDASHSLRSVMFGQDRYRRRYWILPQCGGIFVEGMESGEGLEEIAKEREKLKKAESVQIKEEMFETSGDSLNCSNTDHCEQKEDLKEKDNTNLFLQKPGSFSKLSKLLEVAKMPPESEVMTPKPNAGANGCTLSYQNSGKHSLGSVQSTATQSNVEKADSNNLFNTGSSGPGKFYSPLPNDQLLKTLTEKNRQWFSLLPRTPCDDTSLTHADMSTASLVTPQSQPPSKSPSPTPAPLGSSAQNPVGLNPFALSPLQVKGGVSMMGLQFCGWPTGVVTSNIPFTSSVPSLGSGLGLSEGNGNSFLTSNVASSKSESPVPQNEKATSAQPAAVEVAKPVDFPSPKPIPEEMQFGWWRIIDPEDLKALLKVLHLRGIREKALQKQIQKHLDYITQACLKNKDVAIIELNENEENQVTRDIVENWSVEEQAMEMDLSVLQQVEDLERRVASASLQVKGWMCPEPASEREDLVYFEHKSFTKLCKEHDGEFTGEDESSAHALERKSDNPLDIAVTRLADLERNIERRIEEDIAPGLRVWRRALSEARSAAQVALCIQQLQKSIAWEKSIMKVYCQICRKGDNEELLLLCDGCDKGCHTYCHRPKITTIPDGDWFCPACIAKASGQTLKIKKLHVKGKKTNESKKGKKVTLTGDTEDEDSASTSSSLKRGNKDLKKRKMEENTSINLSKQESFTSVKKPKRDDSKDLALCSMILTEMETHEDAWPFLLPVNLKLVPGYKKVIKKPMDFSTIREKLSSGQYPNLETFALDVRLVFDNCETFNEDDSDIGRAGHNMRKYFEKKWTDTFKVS

| SMILES | activity change, negative = inhibition | Potency |
| --- | --- | --- |
| O=C(O)CNC(=O)c1ccc(OC(F)F)cc1 | inactive: -6.19% |  |
| C/C(=N/NC(=O)c1sc(NS(=O)(=O)c2ccc(C)cc2)nc1C)c1sc(N)nc1C |  | inconclusive: 79.4 µM [inhibitor, partial curve] |
| Cc1ccc(NC(=O)c2nc(S(=O)(=O)Cc3ccccc3)ncc2Cl)cc1 |  | inconclusive: 56.2 µM [inhibitor, full curve] |
| FC(F)(F)c1ccc2c(c1)C1C=CCC1C(c1ccncc1)N2 (centres undefined) |  | active: 44.7 µM |
| CCN(CC)CCOCCOc1ccc(Cl)c2ccccc12 |  | active: 79.4 µM |
| COc1ccc(NC(=S)NCc2ccc3c(c2)OCO3)cc1 |  | inconclusive: 3.98 µM [inhibitor, partial curve, poor fit] |
| Cc1cc(/C=C2/NC(=O)N(Cc3ccccc3F)C2=O)c(C)n1C(C)C |  | inconclusive: 22.4 µM [inhibitor, full curve] |
| O=c1nc2cccc3c2=c(/c1=C(\O)c1ccccc1)c1ccccc1c3=O |  | active: 89.1 µM |
| COCCn1c(C)cc(C2=NNC(=Nc3ccccc3F)SC2)c1C |  | inconclusive: 89.1 µM [inhibitor, single point] |
| CCn1c(CNc2ccc(OC)cc2)nnc1SCC(=O)N1CCCc2ccccc21 |  | inconclusive: 89.1 µM [inhibitor, single point] |
| CN1CCc2c(sc3nc(SCC(=O)NCc4ccco4)n(-c4ccccc4)c(=O)c23)C1 |  | inconclusive: 39.8 µM [inhibitor, partial curve] |
| CC[C@H](C)C(=O)N[C@H]1CCCN1C(=O)/C=C/c1ccccc1 |  | inconclusive: 39.8 µM [inhibitor, single point] |
| CCCNC(=O)c1c2c(nc3ccccc13)C(=O)N(C1CCCCC1)C2 | inactive: -8.99% |  |
| CC(C)c1nnc(NC(=O)CCC(=O)N2CCN(c3cccc(Cl)c3)CC2)s1 |  | inconclusive: 89.1 µM [inhibitor, single point] |
| COc1ccc(Cc2nc(-c3cccnc3)no2)cc1OC | inactive: 2.41% |  |
| Cc1cccn2c(=O)c(/C=C(\C#N)c3nc4ccccc4n3C)c(Oc3ccc(Cl)cc3)nc12 |  | inconclusive: 89.1 µM [inhibitor, single point] |
| N#Cc1sc2nc(-c3ccccc3)cc(-c3ccco3)c2c1N |  | inconclusive: 89.1 µM [inhibitor, single point] |
| O=C(O)/C(=C\c1ccc(Cl)cc1)c1ccc(S(=O)(=O)N2CCCC2)s1 |  | inconclusive: 89.1 µM [inhibitor, single point] |
| COc1ccc(OC)c(NC(=O)[C@H](Cc2ccccc2)N2Cc3ccccc3C2=O)c1 |  | inconclusive: 56.2 µM [inhibitor, partial curve] |
| O=C(COc1ccccc1)NCC(=O)N/N=C/c1cccs1 | inactive: 1.45% |  |
| O=C(c1ccc([N+](=O)[O-])s1)N1CCN(c2ccccn2)CC1 | inactive: -8.39% |  |
| CCOc1cc(/C=C2\COc3ccccc3C2=O)ccc1OCC(=O)N(C)C |  | inconclusive: 89.1 µM [inhibitor, single point] |
| CCOC(=O)C1=C(CN2CCN(C(=O)c3ccco3)CC2)NC(=O)NC1c1ccc(OC)cc1 (centres undefined) | inactive: -26.6% |  |
| CCC(=O)N1c2ccccc2CC1C(=O)NCCc1ccc(OC)cc1OC (centres undefined) | inactive: -16.9% |  |
| CCn1cc(S(=O)(=O)c2ccc(C)cc2C)c(=O)c2cc(F)c(N3CCCC3)cc21 | inactive: 1.02% |  |

| SMILES | activity change, negative = inhibition | Potency |
| --- | --- | --- |
| O=S(=O)(c1ccccc1)N(CC1CO1)c1cc(Cl)ccc1Cl (centres undefined) | inactive: 11.7% |  |
| CN1Cc2c(N)cccc2C(c2ccccc2)C1 (centres undefined) | inactive: 0.338% |  |
| CCOc1cccc(-c2c(C(=O)N/N=C(\C)c3ccccn3)nnn2-c2nonc2N)c1 |  | active: 12.6 µM |
| Nc1cc(=O)[nH]c(SCC(=O)N2N=C(c3ccc4ccccc4c3)CC2c2ccccc2)n1 (centres undefined) |  | inconclusive: 89.1 µM [inhibitor, single point] |
| Oc1c(Br)cc(C=Nc2ccc3nc(-c4ccccc4)[nH]c3c2)c(O)c1Br |  | active: 39.8 µM |
| O=C(Nc1cccc(-c2cn3c(n2)SCC3)c1)c1ccc2c(c1)OCO2 |  | inconclusive: 28.2 µM [inhibitor, full curve] |
| COCCCNC(=S)N1CCN(c2nc(-c3ccc(F)cc3)cs2)CC1 |  | inconclusive: 50.1 µM [inhibitor, partial curve] |
| O=C(COc1ncnc2ccccc12)N1CCN(S(=O)(=O)c2ccccc2)CC1 | inactive: 0.877% |  |
| O=C1NCCCC1C(=O)Nc1ccccn1 (centres undefined) | inactive: -4.99% |  |
| Cc1ccccc1NC(=O)N1CCC(CN2CCCC2)CC1 | inactive: 6.58% |  |
| O=C(Nc1ccccc1N1CCCC1)C1CCN(S(=O)(=O)c2cccc(C(F)(F)F)c2)CC1 |  | inconclusive: 70.8 µM [inhibitor, single point] |
| CCN1C(=O)/C(=C2/C(=O)N3c4c(cc(OC(C)=O)cc42)C(C)=CC3(C)C)SC1=S |  | active: 2 µM |
| CC(C)COc1ccc2[nH]c3c(c2c1)CCCC3=O |  | inconclusive: 89.1 µM [inhibitor, single point] |
| O=C(COc1ccccc1Cl)Nc1ccc(N2CCN(C(=O)c3ccccc3)CC2)cc1 |  | inconclusive: 28.2 µM [inhibitor, full curve] |
| CN(C)C(CNc1ncnc2ccccc12)c1c(F)cccc1Cl (centres undefined) | inactive: 1.15% |  |
| COc1ccc(CN(C(=O)c2ccc(-c3ccccc3)[nH]2)C(C(=O)NCC2CCCO2)c2ccc(C)o2)cc1 (centres undefined) |  | active: 44.7 µM |
| Cc1cccc(Nc2nc(-c3ccccc3)cs2)n1 |  | inconclusive: 35.5 µM [inhibitor, single point] |
| CCCCN(CC)c1nc(N)c(C#N)c(CC#N)c1C#N | inactive: 1.98% |  |
| CC(C)(C)NC(=O)CN(C(=O)Cn1nnc(-c2ccccc2F)n1)c1cccc2c1CCCC2 | inactive: -35.8% |  |
| O=C(Cc1ccc(Cl)cc1)Nc1ccc(S(=O)(=O)Nc2cnc3ccccc3n2)cc1 |  | inconclusive: 89.1 µM [inhibitor, single point] |
| CC1CCCN(C(=O)C2CCN(CCCc3ccccc3)CC2)C1 (centres undefined) |  | inconclusive: 89.1 µM [inhibitor, single point] |
| Cc1ccc(NC(=O)CCC(=O)Nc2ccc(C)cc2)cc1 |  | inconclusive: 89.1 µM [inhibitor, single point] |
| COCCNC(=S)N1CCN(c2nc(-c3cccc(OC)c3)cs2)CC1 |  | inconclusive: 50.1 µM [inhibitor, partial curve] |
| CN(CC(=O)Nc1ccc(N2CCOCC2)cc1)C(=O)CCCOc1ccc(Cl)cc1Cl |  | inconclusive: 50.1 µM [inhibitor, partial curve] |
| C/C(=N\Nc1nc(-c2ccccc2)cs1)c1cccs1 |  | active: 39.8 µM |

| SMILES | activity change, negative = inhibition | Potency |
| --- | --- | --- |
| CC1C(=O)N2CCCc3cc(S(=O)(=O)Nc4ccc(Br)cc4F)cc1c32 (centres undefined) | inactive: 6.51% |  |
| NC(=O)c1ccc2c(=O)n3c(-c4cc(Cl)c(N)c(Cl)c4)csc3nc2c1 |  | inconclusive: 79.4 µM [inhibitor, partial curve] |
| COc1ccccc1NC(=O)N1CCc2c([nH]c3ccccc23)C1C(F)(F)F (centres undefined) |  | inconclusive: 56.2 µM [inhibitor, single point] |
| N#Cc1c(NC(=O)CSc2ncc(-c3ccccc3)n2CC2CCCO2)sc2c1CCCC2 (centres undefined) |  | inconclusive: 8.91 µM [inhibitor, full curve] |
| CC1CCN(S(=O)(=O)c2ccc(S(=O)(=O)NCc3ccccc3)cc2)CC1 |  | inconclusive: 100 µM [inhibitor, single point] |
| Cc1cc(NC(=O)CSc2ccc(Cl)cc2)no1 | inactive: 8.15% |  |
| COc1cccc(/C=N/NC(=O)c2ccc(=O)[nH]n2)c1O |  | active: 50.1 µM |
| CC1CCCC(NC(=O)c2ccc3snnc3c2)C1C (centres undefined) | inactive: -0.448% |  |
| C#CCOCCOCCOCCNc1nc(N2CCN(C(=O)CCCCCCCCCCNC(=O)Cn3cc(CCCCCN)nn3)CC2)nc(N2CCN(C(=O)CCCCCCCCCCNC(=O)Cn3cc(CCCCCN)nn3)CC2)n1 |  | active: 56.2 µM |
| Cc1ccccc1OCC(=O)OCC(=O)Nc1cc(S(=O)(=O)N2CCCCC2)ccc1Cl | inactive: 5.97% |  |
| CCOC(=O)C1CCCN(C(=O)C2CCN(S(=O)(=O)c3c(C)noc3/C=C/c3ccc(C)cc3)CC2)C1 (centres undefined) | inactive: -17.6% |  |
| Cn1cccc1Cc1nnc(SCC(=O)NCc2ccccc2)n1-c1ccc(F)cc1 |  | inconclusive: 89.1 µM [inhibitor, single point] |
| C=CCc1ccc(OCC(O)CN2CCN(c3ccccc3OC)CC2)c(OC)c1 (centres undefined) |  | inconclusive: 56.2 µM [inhibitor, partial curve] |
| CCOc1ccc(Oc2nc(NCC(C)C)nc(N(C)C)n2)nn1 | inactive: 5.68% |  |
| CCn1nc(C)cc1C(=O)N1CCCC(Nc2ccc(C(C)C)cc2)C1 (centres undefined) |  | inconclusive: 39.8 µM [inhibitor, partial curve] |
| O=C(CSc1n[nH]c(-c2cccnc2)n1)Nc1cccc(Cl)c1 | inactive: 2.32% |  |
| CCN(CC)CCNC(=O)c1ccc(NC(=O)C2CC(=O)N(c3ccc4c(c3)OCCO4)C2)cc1 (centres undefined) | inactive: 0.206% |  |
| Cc1ccccc1-c1nnc(SC(C)C(=O)NC2CCCC2)o1 (centres undefined) | inactive: 9.91% |  |
| COc1ccc2c(c1)c1c(c(=O)n(-c3ccc(C)cc3)c(=O)n1CC(=O)Nc1cc(C)ccc1C)n2C | inactive: -4.72% |  |
| O=C(Nc1cccc(C(F)(F)F)c1)c1ccc(F)c(S(=O)(=O)N2CCc3ccccc3C2)c1 | inactive: 0.762% |  |
| CCOc1cc(Br)c(C2C(C(=O)OC)=C(C)NC3=C2C(=O)c2ccccc23)cc1OCC (centres undefined) |  | active: 31.6 µM |
| COc1ccc(Br)cc1CN1CCN(C(=O)c2ccc(OC)c(OC)c2)CC1 |  | active: 50.1 µM |
| O=C(NCc1ccco1)c1cccn2c(=O)c3c4c(sc3nc12)CCCC4 |  | inconclusive: 89.1 µM [inhibitor, single point] |
| Cc1cccc(C(=O)Nc2cccc(C(=O)Nc3cc(C)ccn3)c2)c1 |  | inconclusive: 8.91 µM [inhibitor, full curve, poor fit] |
